Measured values reported in paper PMC12136788.
The list shows a part of the results.

T1: UNK ZnF1-3 (human, UniProt Q9C0B0 31-174)
T1 sequence: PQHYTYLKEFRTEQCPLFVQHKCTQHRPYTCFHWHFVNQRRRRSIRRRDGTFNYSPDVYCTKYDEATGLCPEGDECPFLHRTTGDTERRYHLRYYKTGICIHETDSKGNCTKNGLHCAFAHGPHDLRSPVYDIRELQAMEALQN

B1: chr3:54535082:54535083:-_ENSMUSG00000027752_ENSMUST00000029316|mus_hu|FALSE|FALSE (ssRNA)
RNA: GGGAGUUCUACAGUCCGACGAUCGCAGGCAUCCAAAAUGUUUCCAUCGUAGUCGAGGCAAAUGAGAUCACAGUAUAGAACCCAGACAAGCUUUCCUGGAGAAAUGCAUAAGUCCUCUUUCUGAAUUAUCUGUGAAUUUUCAAUCAACAGAGGAUUGAGCAUCA
B2: chr1:130270616:130270617:-_ENSMUSG00000026356_ENSMUST00000027602|mus_mus|FALSE|FALSE (ssRNA)
RNA: GGGAGUUCUACAGUCCGACGAUCGUAAUGAUAAUUAAAGGCCAUUUCAAUAUCCAAACCAACAAAUUCAGUCAGAUGUCUAUGGGUAUUGGAGUCUUCAGCUCUGAAAACUGGUCCAAUGCAGAAAACCUUCUCAAAAUCAGCCAACAGAGGAUUGAGCAUCA
B3: chr1:76259871:76259872:+_ENSG00000137955_ENST00000319942|hu_mus|motif|central (ssRNA)
RNA: GGGAGUUCUACAGUCCGACGAUCAUCCACCAUAUCUCCUGGUCUGUCUGCAAAUCCUCCCGUCUCUUCAUCUUGACACGCGGAGAUGAAACUUCGAAGCUUUUCUCUGUCAAUCCAAUGAAGUCUCCCGAUGAUCUUUAGGGACAACAGAGGAUUGAGCAUCA
B4: 52898879_52899641_1862_CDS_ENSMUSG00000035247_ENSMUST00000042052|mouse|control|control (ssRNA)
RNA: GGGAGUUCUACAGUCCGACGAUCCUUCAAGUAGAGCGGUGCCAUUUCUGGAUCCCCUCUGGGUUCAUUGCAUUCCUCUUCAUCUUUGUUUGUAUCUUUCUUUUUUUUGUCAUCCCCUUUAUUAACUGGACACAUCCAAUCACCCAACAGAGGAUUGAGCAUCA
B5: 87783043_87783163_4856_CDS_ENSMUSG00000004891_ENSMUST00000090973|mouse|control|control (ssRNA)
RNA: GGGAGUUCUACAGUCCGACGAUCCUCUGGUGGGUCACUGAGACCCUGGGCAGCCAGGGCAGCAGGACUCCAGCCUUCCUUCCUGGCCUCCCCUUGAGGGAAAAGCCUCUGUUCUCCAGCUUGCUCCCACUUUGGGGAGGCAGGCAACAGAGGAUUGAGCAUCA
B6: chr4:95690885:95690886:+_ENSMUSG00000028572_ENSMUST00000156910|mus_mus|mus_mus_mus_hu_False|28_98 (ssRNA)
RNA: GGGAGUUCUACAGUCCGACGAUCUUUAGAAAAUGUUAAUGUUAAAUCUAAAAUAUUUUCAAAGGCUUAUUUUAUUUUACCAGAAGUCACAGGCAAGCAGACACUACAAACAUACAAGAAAAUGAAACUCAACAAUAUAACUGUCAACAGAGGAUUGAGCAUCA
B7: 180006062_180006182_4426_CDS_ENSG00000135837_ENST00000367607|human|control|control (ssRNA)
RNA: GGGAGUUCUACAGUCCGACGAUCUGAAAUGCCUCUAACUCUUUCUACAUCUGACAGUUGGCGCACCGACUCCUCAAUGGCGUUCAGAUAACUGAGUUCUGCUGCCAUACGAUGAUGGAGGCCAGCAGGAGAAAAGCGCUUAGACAACAGAGGAUUGAGCAUCA
B8: 160792165_160792285_4860_CDS_ENSMUSG00000057133_ENSMUST00000039782|mouse|control|control (ssRNA)
RNA: GGGAGUUCUACAGUCCGACGAUCGUCAGUUCUUUUGUGUUGGGCAUAGUUUCUAUAGGCAUCUAGGAAGGAUAGCUGGGGGUCAUUCAUGAUGUAAUAGUCAGUGCGGUUGAGCCCAUGUUUGGCGGUGCCAAUGAGCAGGUCCAACAGAGGAUUGAGCAUCA
B9: 64968284_64968404_3155_CDS_ENSG00000171988_ENST00000542921|human|control|control (ssRNA)
RNA: GGGAGUUCUACAGUCCGACGAUCAUUCUCUCUCUCACCCUCAAGUCCCUUGAUUUUAGUUGUAAAGGGAGCAACAUCAAUACUUUCUUGAAGAAUUCGACGGUGUUCCUCUUUGUAUUUGUUUAACCUCUCUCCAGUCUCCUGCAACAGAGGAUUGAGCAUCA
B10: chr1:25669491:25669492:+_ENSG00000183726_ENST00000374358|perfect_dup|FALSE|FALSE (ssRNA)
RNA: GGGAGUUCUACAGUCCGACGAUCACAGGCAUGGUAUGAGUGGUUGAAAUCUUUCAUGGUGGGAUAAAUAACAGCUGCAUCUAUGAUAAUCCACCAGCCUGUAAAAAAUAGUACACCAGCAGCAAUGGAAGCAAUAGUAUUGCGCAACAGAGGAUUGAGCAUCA
B11: 68315663_68321657_857_CDS_ENSG00000110075_ENST00000393800|human|control|control (ssRNA)
RNA: GGGAGUUCUACAGUCCGACGAUCCAGGCGAACAAUUUCACAAAGUGAUUGUGAUGCAUUUGAAUGUCGAUCUUCUUCUUGCGAUGGAUGAACUAUUUCCACAAGCCUCUGGAUAAUUUUCUCCUCAUUUAACCAAUUCAGCACCAACAGAGGAUUGAGCAUCA
B12: chr16:11201500:11201501:-_ENSMUSG00000005846_ENSMUST00000119953|perfect_dup|FALSE|FALSE (ssRNA)
RNA: GGGAGUUCUACAGUCCGACGAUCGUUGAAUUGGGUUCAUCCUUCGUAAAUAAACAGAUAUCUUCUGAAUCUGAUCGAAUACUAUGAGGCAAGGUCCUGUUCUUUAUCCAGCUGCUUCCGUGCUGUCGGGGCCGCUGGAGUCGACAACAGAGGAUUGAGCAUCA
B13: 235949563_235949683_614_CDS_ENSG00000130147_ENST00000392011|human|control|control (ssRNA)
RNA: GGGAGUUCUACAGUCCGACGAUCACCGCCAGAUGUGUCCAAGACGUAGAGAUGGUCGCCCUUGGAGAACUUCAGUGUGGUGAAGUUGGUGGGGCAAUAGUCCUUGAUCGCAAUCACUUCCUUUGCAUUUCCGAAAGGUGUGGGCAACAGAGGAUUGAGCAUCA
B14: chr11:130013608:130013609:+_ENSG00000084234_ENST00000528499|hu_hu|FALSE|FALSE (ssRNA)
RNA: GGGAGUUCUACAGUCCGACGAUCAGCAUGUGUCAGACAAUACAAUGGAAGUGGGGUUUCUGAUUAAUUUAAAAAAGAAAACUACAUCAAAUAUCUGCAAUAGAUCAUUUUUUUCAUUUAAGGUUUAUAUAUCAUAUAUUGUUACAACAGAGGAUUGAGCAUCA
B15: chr4:118896860:118896861:-_ENSMUSG00000078584_ENSMUST00000141112|mus_mus|FALSE|FALSE (ssRNA)
RNA: GGGAGUUCUACAGUCCGACGAUCCCGAGUGCUGGGAUUAAAGGCGUGCACUACCACUGCCCGGCUUGACACUUCUUAUACCCAAAAUUGGUUACUUUCUCUGUCUCAUUAUGACAAGGAUCUCUGUCUUGUGCUCUCUGUGCUCAACAGAGGAUUGAGCAUCA
B16: chr11:103733960:103733961:-_ENSMUSG00000034187_ENSMUST00000103075|mus_mus|FALSE|FALSE (ssRNA)
RNA: GGGAGUUCUACAGUCCGACGAUCCAUUUUAACUUCCAGUCUUCCGGGUCGAAGGAGAGCUUCGUCUAUCAAAUCUGGUCUAUUGGUCAUUCCGAUAACGAGGAUGUUGUUCAGCUGCUCAACGCCAUCGAUCUUGGACAGCAGCAACAGAGGAUUGAGCAUCA
B17: 111932888_111933355_639_CDS_ENSMUSG00000021270_ENSMUST00000094361|mouse|control|control (ssRNA)
RNA: GGGAGUUCUACAGUCCGACGAUCCUUUGUUCCACGACCCAUUGGUUCACCUGUGUCAGUCCUCACUGUGAAGGAUCCCCCAGCUGAGGACUCCCAGGCAUACUGCUCAUCGUCGUUAUGCUUCGUGAUGACAGUCACUUUCUCCAACAGAGGAUUGAGCAUCA
B18: 97424854_97425602_1988_CDS_ENSMUSG00000021670_ENSMUST00000022176|mouse|control|control (ssRNA)
RNA: GGGAGUUCUACAGUCCGACGAUCGAGUUUCUGUAGACGAGCAAAUCUGCUGGUGCUAUCAAAGGCCUCCUUUAUCACUGCAAACCCUUCAGGUGUUUCAAGCCAGGUCUUUACUUCUGCAGAGUCACAAGCACGUGGAAGACGCAACAGAGGAUUGAGCAUCA
B19: chr14:102359341:102359342:+_ENSG00000078304_ENST00000445439|hu_mus|FALSE|FALSE (ssRNA)
RNA: GGGAGUUCUACAGUCCGACGAUCCUUCAGUGGUAAGGCAAAUCCAUUAAUUAUACUUCCCAGGAUCUCCAGUAACUCCGCUAUGCCAUUGUGAUGCUCUGUCUCAUAGAUAAACCUAUAAAAUAUAUUAUUGAUCUGUUUCCUCAACAGAGGAUUGAGCAUCA
B20: 125852589_125860064_2747_CDS_ENSG00000011454_ENST00000373647|human|control|control (ssRNA)
RNA: GGGAGUUCUACAGUCCGACGAUCGGUCAUCAGCAGCUCCUUAUUCAGAGCAUCUGCCUUUUCCUCAGCGUUAUCCAGGUCCUUCCGUAGUGCAAUCUUGCUGGUCACCAGCUCAUGGGCUAAGUCAUCGUUUUCCUGUUCCAACAACAGAGGAUUGAGCAUCA
B21: 16165095_16168310_1563_CDS_ENSG00000169762_ENST00000405303|human|control|control (ssRNA)
RNA: GGGAGUUCUACAGUCCGACGAUCAUUUUCCUUUUGAUGAAUAGGUUGUUUGGUGAUGGAGGCAGACAGGUUUUCUUCUGUGGAAAGGCCUUGAGAGGGUUUACAUUUGUUCUGUGAUUUACUGGACGGCUUGCCUGGAGUGCACAACAGAGGAUUGAGCAUCA
B22: chr2:31148548:31148549:+_ENSMUSG00000062661_ENSMUST00000000199|mus_hu|FALSE|FALSE (ssRNA)
RNA: GGGAGUUCUACAGUCCGACGAUCCUGGAGGGAACAGUGCAUUAGCCAUUUAGGAAUUUCCACCUCUCCCCUCUCCAAAAAUCAAGCACAGUAUCUGAAAAAAAAAAAAUUUUUUUUGGCUUCUUGGCCGCUGCAGGCCACCAUCAACAGAGGAUUGAGCAUCA

molecular target: T1, UNK ZnF1-3; experiment: nsRBNS (natural sequence RNA bind-n-seq); RBNS binding buffer (assumed for nsRBNS): 25 mM Tris pH 7.5, 150 mM KCl, 3 mM MgCl2, 0.01% Triton X-100, 500 ug/ml BSA, 20 U/ml SUPERase-In, 4 C; UNK is unkempt and MSI1 is Musashi-1; names of the RNAs are library labels; protein concentration not given here; high values mean tight binding

| Binder | binding signal [enrichment R] |
| --- | --- |
| B1 | 1.86 |
| B2 | 0.972 |
| B3 | 0.752 |
| B4 | 0.444 |
| B5 | 0.208 |
| B6 | 2.3 |
| B7 | 1.23 |
| B8 | 1 |
| B9 | 0.62 |
| B10 | 2.1 |
| B11 | 0.865 |
| B12 | 0.377 |
| B13 | 0.68 |
| B14 | 2.84 |
| B15 | 0.673 |
| B16 | 1.24 |
| B17 | 0.348 |
| B18 | 0.995 |
| B19 | 1.43 |
| B20 | 0.723 |
| B21 | 0.74 |
| B22 | 1.31 |
